Test results taken from PubChem BioAssay AID2675 (National Center for Advancing Translational Sciences (NCATS), 2010).
About 100 (0.036%) of roughly 280,000 compounds were called active. This list was built around the results that the source calls inconclusive (neither active nor inactive); the mix of calls is not that of the screen. Calls come from the whole dose curve; as a rule, active = well fitted inhibition curve with a large enough effect in the signal ratio, with a control signal flat (not every such curve was filed as active); inconclusive = small, poorly fitted or top-dose-only effect, or effect the other way, or a change in a side signal; inactive = no such curve, though single readings can be large or run the other way; the % refers to the signal ratio. A potency beside an inconclusive call is a rough fit, not a confirmed value. “Side channel” marks fits to a control or component signal instead of the main read-out.
% is set by controls: 0 for no effect and ±100 for the full control effect; potency is the fitted concentration of half-maximal effect; tags give direction and shape of the fitted curve or compound fluorescence and quenching.

The molecules below were run against Muscleblind-like protein 1 (Homo sapiens) (UniProt Q9NR56) (assay: qHTS Assay for Inhibitors of MBNL1-poly(CUG) RNA binding). Settings: TR-FRET MBNL1-His/biotin-(CUG)12 binding, 665/545 ratio; activity change, negative = inhibition: at 57.5 µM (top of the series).
Sequence of UniProt Q9NR56 (Q9NR56 whole entry, looked up): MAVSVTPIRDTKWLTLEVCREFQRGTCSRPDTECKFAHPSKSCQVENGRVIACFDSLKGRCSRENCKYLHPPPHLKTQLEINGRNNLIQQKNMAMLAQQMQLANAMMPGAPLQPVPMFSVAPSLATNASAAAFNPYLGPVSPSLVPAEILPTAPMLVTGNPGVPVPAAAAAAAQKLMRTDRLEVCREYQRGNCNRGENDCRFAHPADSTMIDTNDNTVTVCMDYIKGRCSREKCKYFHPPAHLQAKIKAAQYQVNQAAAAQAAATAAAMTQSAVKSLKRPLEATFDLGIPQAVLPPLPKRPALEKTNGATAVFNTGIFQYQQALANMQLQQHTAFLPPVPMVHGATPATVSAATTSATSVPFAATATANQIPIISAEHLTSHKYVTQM
How it was run: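 His-tagged MBNL1 binding to biotinylated (CUG)12 RNA was measured by TR-FRET using terbium anti-His antibody (0.055 ng/ul final) and streptavidin-XL665 (5 nM final). Compounds were titrated 92 nM to 58 uM; 60 min at room temperature.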
With `Cn1c(=O)c2c(nc(NCc3ccco3)n2Cc2ccccc2Cl)n(C)c1=O` the “activity change, negative = inhibition” value was inactive: -1.4%. `CCN(CC)c1ccc(-c2c(C#N)c(N)nc(OC)c2C#N)cc1` was tested, and the Potency was inconclusive: 3.55 µM [fluorescent, side channel, full curve]. For `COc1ccc(/C=C/c2cc(C(F)(F)F)[nH]c(=O)n2)cc1OC`, the Potency was inconclusive: 20 µM [quencher, side channel, partial curve]. In the case of `Cc1c(N2C(=O)/C(=C\C3CC=CCC3)SC2=S)c(=O)n(-c2ccccc2)n1C` (stereo not drawn), the “activity change, negative = inhibition” value is reported as inactive: 13%. `CCOc1ccc(N2C(=O)/C(=C/c3ccccc3OCC(=O)OC)N(CC(=O)OC)C2=S)cc1` was tested, and the activity change, negative = inhibition was inconclusive: 4.52% [quencher]. In the case of `C/C(=N\NC(=O)c1ccc(CSc2cccc3cccnc23)cc1)C1CCCCC1`, the Potency is reported as inconclusive: 14.1 µM [quencher, side channel, partial curve]. `CN(C)CC1CCCCC1OC(=O)c1ccc(Cl)cc1` (stereo not drawn) was tested, and the “activity change, negative = inhibition” value was inactive: -4.87%. With `O=C(CSc1ccc(-c2ccco2)nn1)N1CCCCC1` the Potency was inconclusive: 14.1 µM [quencher, side channel, partial curve]. `CCCO/N=C1/C(=O)N(c2ccccc2)c2ccccc21` was tested, and the Potency was inconclusive: 14.1 µM [activator, single point]. For `COc1ccc(/C=C/C(=O)NC(=S)N2CCCC(C(N)=O)C2)cc1` (stereo not drawn), the Potency was inconclusive: 17.8 µM [quencher, side channel, partial curve]. For `CCCCN(CC)CCCNC(=O)c1cn(CC)c2ccc(S(=O)(=O)N3CCc4ccccc4C3)cc2c1=O`, the “activity change, negative = inhibition” value was inactive: -3.58%. In the case of `CC(C)(CO)N=C1NS(=O)(=O)c2cc([N+](=O)[O-])ccc21`, the Potency is reported as inconclusive: 1 µM [quencher, side channel, full curve]. With `CC1CN/C(=C\C(=O)c2ccc(Cl)cc2)C(=O)N1` (stereo not drawn) the Potency was inconclusive: 39.8 µM [quencher, single point]. With `Cc1ccc(NC(=O)N2CCN(C/C=C/c3ccccc3)CC2)cc1` the “activity change, negative = inhibition” value was inactive: -14.8%. In the case of `Cc1nn(C(=O)CCCn2cc([N+](=O)[O-])cn2)c(C)c1Cl`, the “activity change, negative = inhibition” value is reported as inactive: 12.5%. In the case of `CC(=O)Nc1ccc(NS(=O)(=O)c2cccc3nonc23)cc1`, the Potency is reported as inconclusive: 15.8 µM [quencher, side channel, partial curve]. In the case of `O=C(O/N=C\c1ccc(N2CCOCC2)c([N+](=O)[O-])c1)c1ccccc1Cl`, the Potency is reported as inconclusive: 15.8 µM [quencher, side channel, partial curve]. With `O=C(CCC(=O)N1CCCC1)Nc1ccc([N+](=O)[O-])cc1` the Potency was inconclusive: 0.501 µM [quencher, side channel, full curve]. `Nc1cc(N)cc(-c2nc3ccccc3[nH]2)c1` was tested, and the Potency was inconclusive: 31.6 µM [quencher, side channel, single point]. With `CC1CC(=O)NN=C1c1ccc(N)c([N+](=O)[O-])c1` (stereo not drawn) the Potency was inconclusive: 10 µM [quencher, side channel, partial curve]. In the case of `CC(=O)OC1COC(n2ccc3cc([N+](=O)[O-])ccc32)C(OC(C)=O)C1OC(C)=O` (stereo not drawn), the Potency is reported as inconclusive: 0.355 µM [quencher, side channel, full curve, poor fit]. `COc1ccc(C(=O)c2cc3ccc(O)cc3oc2=O)cc1` was tested, and the Potency was inconclusive: 28.2 µM [quencher, side channel, single point]. For `COc1cc(Br)c(C(=O)c2nccc3cc(OC)c(OC)cc23)cc1OC`, the Potency was inconclusive: 100 µM [inhibitor, single point]. For `O=C(O)CCCCCn1c(O)c(C=C2N=c3ccccc3=N2)sc1=S`, the Potency was inconclusive: 20 µM [quencher, side channel, partial curve]. `Cc1cc(NC(=O)C2CCCCC2)ccc1NC(=O)c1ccccc1Cl` was tested, and the Potency was inconclusive: 5.62 µM [quencher, side channel, single point]. For `CCN1C(=O)/C(=C/N2CCc3ccccc3C2)SC1=S`, the Potency was inconclusive: 5.62 µM [quencher, side channel, full curve, poor fit]. With `O=[N+]([O-])c1cccc(-n2nncc2-c2ccccc2)c1` the Potency was inconclusive: 31.6 µM [quencher, side channel, single point]. `O=C(COC(=O)c1ccc2ccccc2n1)NCc1ccccc1` was tested, and the Potency was inconclusive: 15.8 µM [quencher, side channel, partial curve]. For `N#CC1=C(N)SC(N)=C(C#N)C1c1ccc(C(F)(F)F)cc1`, the Potency was inconclusive: 39.8 µM [quencher, side channel, single point]. `Cc1cc(-c2ccc(C)c(S(=O)(=O)NCCN3CCC(C)CC3)c2)on1` was tested, and the Potency was inconclusive: 63.1 µM [inhibitor, partial curve]. `O=C(NCCSCc1ccccc1)c1ccc(Cl)c(S(=O)(=O)N2CCOCC2)c1` was tested, and the Potency was inconclusive: 3.55 µM [quencher, side channel, single point]. In the case of `CC(=O)Nc1ccc(NC(=O)Cn2nc([N+](=O)[O-])c(Br)c2C)cc1`, the Potency is reported as inconclusive: 14.1 µM [quencher, side channel, partial curve]. For `CCOc1ccccc1C(=O)NC1CCNCC1`, the “activity change, negative = inhibition” value was inactive: -2.04%. For `COc1cc(N)c(Cc2nccc3cc(OC)c(OC)cc23)cc1OC`, the Potency was inconclusive: 12.6 µM [quencher, side channel, partial curve]. For `Cc1c(C#N)c(O)[nH]c(=O)c1N=Nc1ccc(Cl)c(C(=O)O)c1`, the Potency was inconclusive: 14.1 µM [quencher, side channel, partial curve]. For `CCC1(C)Cc2c(c(=O)n(-c3ccccc3)c3ncnc(N)c23)CO1` (stereo not drawn), the Potency was inconclusive: 39.8 µM [fluorescent, side channel, single point]. For `CN(C(=O)COC(=O)c1cc([N+](=O)[O-])ccc1Sc1ccccc1)C1CCS(=O)(=O)C1` (stereo not drawn), the Potency was inconclusive: 14.1 µM [quencher, side channel, partial curve]. `O=C(Nc1cccc(O)c1)c1ccc(C(=O)c2ccccc2)o1` was tested, and the Potency was inconclusive: 14.1 µM [quencher, side channel, partial curve].
